From paper PMC4336329 (PLoS ONE, 2015)
About 14,000 (4.5%) of roughly 310,000 compounds showed an effect of 50% or more. Effects have a minus sign here. Some of the results follow. Where a SMILES comes first, the peptide text is derived from it. [ ]: non-standard residue; d: D form. The star is where a group is joined. ξ: configuration not given here. Cbz = O=C(OCc1ccccc1)*; ξP = O=C(O)C1CCCN1

Molecular target: human ether-à-go-go-related gene (hERG) potassium channel (human, UniProt Q12809)
Test: primary screen, population patch clamp on CHO cells stably expressing hERG
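Also: peak tail current of the secondary pulse compared with the same well before compound.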

Chain of human ether-à-go-go-related gene (hERG) potassium channel (Q12809 whole entry, looked up): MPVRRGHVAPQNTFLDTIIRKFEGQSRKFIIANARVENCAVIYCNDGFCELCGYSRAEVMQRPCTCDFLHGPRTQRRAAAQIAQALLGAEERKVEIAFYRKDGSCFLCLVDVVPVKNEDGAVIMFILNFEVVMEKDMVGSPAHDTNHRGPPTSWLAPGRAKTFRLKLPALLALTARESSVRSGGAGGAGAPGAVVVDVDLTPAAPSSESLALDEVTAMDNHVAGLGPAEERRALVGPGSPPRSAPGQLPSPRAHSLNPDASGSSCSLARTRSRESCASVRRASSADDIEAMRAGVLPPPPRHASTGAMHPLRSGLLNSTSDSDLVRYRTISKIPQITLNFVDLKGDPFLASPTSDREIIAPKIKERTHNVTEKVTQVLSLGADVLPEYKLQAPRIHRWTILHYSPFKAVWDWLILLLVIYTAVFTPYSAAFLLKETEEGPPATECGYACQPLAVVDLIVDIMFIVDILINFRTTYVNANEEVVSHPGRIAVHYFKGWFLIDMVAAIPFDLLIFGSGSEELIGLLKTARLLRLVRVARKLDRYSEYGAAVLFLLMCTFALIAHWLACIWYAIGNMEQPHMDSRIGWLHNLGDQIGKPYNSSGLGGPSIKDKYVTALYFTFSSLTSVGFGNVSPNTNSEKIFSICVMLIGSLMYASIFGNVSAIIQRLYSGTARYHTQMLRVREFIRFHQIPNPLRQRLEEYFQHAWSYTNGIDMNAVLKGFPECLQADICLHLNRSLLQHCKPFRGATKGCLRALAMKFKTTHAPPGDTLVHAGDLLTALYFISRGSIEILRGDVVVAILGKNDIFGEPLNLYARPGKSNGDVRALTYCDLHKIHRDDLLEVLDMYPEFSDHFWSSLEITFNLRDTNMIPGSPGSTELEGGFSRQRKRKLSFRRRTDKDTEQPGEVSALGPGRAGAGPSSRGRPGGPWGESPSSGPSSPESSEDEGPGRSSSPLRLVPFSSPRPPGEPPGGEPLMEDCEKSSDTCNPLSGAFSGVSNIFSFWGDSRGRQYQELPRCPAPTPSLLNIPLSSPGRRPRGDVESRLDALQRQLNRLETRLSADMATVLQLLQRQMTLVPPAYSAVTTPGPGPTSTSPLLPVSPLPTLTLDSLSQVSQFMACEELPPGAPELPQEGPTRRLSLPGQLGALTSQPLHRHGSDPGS

`CC(C)(C)c1nnc(NC(=S)Nc2ccccc2)s1` was tested. Which “hERG current change (%, negative = inhibition) at 10uM” value did it give?
Its value is 10.5%.

Which “hERG current change (%, negative = inhibition) at 10uM” value does the source give for `Cc1c(C(=O)NCC2CCCO2)oc2ccc(S(=O)(=O)N3CC(C)CC(C)C3)cc12` (centres unmarked) here?
The value was 6.02%.

With `Cn1cccc1CC(=O)N/N=C/C=C/c1ccccc1` as the compound, how does the “hERG current change (%, negative = inhibition) at 10uM” value read?
Its value is 5.92%.

Which “hERG current change (%, negative = inhibition) at 10uM” value does the source give for `COc1ccc(C(C)C)cc1S(=O)(=O)N1CC(C)OC(C)C1` (centres unmarked) here?
The value was 1.99%.

How did the “hERG current change (%, negative = inhibition) at 10uM” value turn out when `C/C=C(\C)CN1CCCC(N(C)CCc2ccc(OC)c(OC)c2)C1` (centres unmarked) was run?
The value was -27.5%.

How did the “hERG current change (%, negative = inhibition) at 10uM” value turn out when `CCC1CCCCN1CCCNC(=O)CN1C(=O)CSc2ccc(S(=O)(=O)N3CCOCC3)cc21` (centres unmarked) was run?
Its value is 17.6%.

Which “hERG current change (%, negative = inhibition) at 10uM” value does the source give for `O=C(N/N=C/c1ccc(Br)o1)c1cc([N+](=O)[O-])cc([N+](=O)[O-])c1` here?
Its value is -1.54%.

How did the “hERG current change (%, negative = inhibition) at 10uM” value turn out when `Cc1cc2nc(-c3cccc(NC(=O)c4ccc(Br)o4)c3)oc2cc1C` was run?
Its value is 8.44%.

With `CC1CCN(c2cc(Br)c([N+](=O)[O-])cc2F)CC1` as the compound, how does the “hERG current change (%, negative = inhibition) at 10uM” value read?
Its value is 1.84%.

For `CCc1sc(C(=O)Nc2ccc(F)cc2C)cc1C`, which “hERG current change (%, negative = inhibition) at 10uM” value is on record?
The value was 6.14%.

With `CCOC(=O)CNc1nc(Cl)nc(Nc2ccc(C)cc2)n1` as the compound, how does the “hERG current change (%, negative = inhibition) at 10uM” value read?
The value was 5.46%.

How did the “hERG current change (%, negative = inhibition) at 10uM” value turn out when `O=C(CC(c1ccccc1)c1ccccc1O)N1CCCCC1` (centres unmarked) was run?
Its value is -3.29%.

For `O=C(O)CSCC(=O)Nc1ccc(C(=O)O)cc1`, which “hERG current change (%, negative = inhibition) at 10uM” value is on record?
The value was 12.5%.

With `C=CCn1c(SCC(=O)Nc2ccc3c(c2)OCCO3)nnc1-c1ccco1` as the compound, how does the “hERG current change (%, negative = inhibition) at 10uM” value read?
The value was -63.3%.

`CCN(CC)CCCNc1cc(C(F)(F)F)c(C#N)c2nc3ccccc3n12` was tested. Which “hERG current change (%, negative = inhibition) at 10uM” value did it give?
Its value is -18.4%.

For `COc1cc(/C=C2\SC(=S)N(N(C)c3ccccc3)C2=O)ccc1O`, which “hERG current change (%, negative = inhibition) at 10uM” value is on record?
Its value is 3.66%.

Which “hERG current change (%, negative = inhibition) at 10uM” value does the source give for `COc1ccc(/C=C(\NC(=O)c2ccccc2)C(=O)NCCC(=O)O)cc1` here?
Its value is 26.3%.

`CCn1c(C)c(C(=O)c2ccccc2)c(C#N)c1C(=O)O` was tested. Which “hERG current change (%, negative = inhibition) at 10uM” value did it give?
Its value is -0.677%.

Which “hERG current change (%, negative = inhibition) at 10uM” value does the source give for `CCOc1cc(N2CCOCC2)c(OCC)cc1NC(=O)CSc1cccc[n+]1[O-]` here?
The value was 16.4%.

How did the “hERG current change (%, negative = inhibition) at 10uM” value turn out when `COc1ccc(N2CCN(Cc3ccc(Br)s3)CC2)cc1` was run?
The value was -14.8%.

`O=C(c1cccc(N2C(=O)C3C4C=CC(C4)C3C2=O)c1)N1CCN(c2ccc(F)cc2)CC1` (centres unmarked) was tested. Which “hERG current change (%, negative = inhibition) at 10uM” value did it give?
The value was -18.3%.

How did the “hERG current change (%, negative = inhibition) at 10uM” value turn out when `C#C[C@]1(O)CC[C@H]2[C@@H]3CCC4=CC(=O)CC[C@@H]4[C@H]3CC[C@@]21CC` was run?
The value was 6.58%.

`CCOC(=O)C1CCN(Cc2c(O)c3ccccc3oc2=O)CC1` was tested. Which “hERG current change (%, negative = inhibition) at 10uM” value did it give?
The value was 3.37%.

Which “hERG current change (%, negative = inhibition) at 10uM” value does the source give for `Cl.c1ccc2c(NCC3CCCO3)nc(N3CCCCC3)nc2c1` (centres unmarked) here?
Its value is -72.9%.

For `COc1cccc(NC(=O)C2CCN(Cc3cnn(-c4ccccc4)c3-n3cccc3)CC2)c1`, which “hERG current change (%, negative = inhibition) at 10uM” value is on record?
Its value is -45.5%.

With `CCOC(=O)C(NC(C)=O)C(OC(C)=O)c1cccc([N+](=O)[O-])c1` (centres unmarked) as the compound, how does the “hERG current change (%, negative = inhibition) at 10uM” value read?
Its value is -4.49%.

For `c1ccc(-c2cc3c(N4CCN(c5ncccn5)CC4)ncnc3s2)cc1`, which “hERG current change (%, negative = inhibition) at 10uM” value is on record?
The value was 22%.

With `COC(=O)CNC(=O)C1CCCN1C(=O)CNC(=O)OCc1ccccc1` (stereo not drawn) (Cbz-Gly-[ξP]-Gly-OMe) as the compound, how does the “hERG current change (%, negative = inhibition) at 10uM” value read?
The value was 20.8%.

For `CCc1ccc(N(CC(=O)NC)S(C)(=O)=O)cc1`, which “hERG current change (%, negative = inhibition) at 10uM” value is on record?
The value was 9.89%.

For `Cl.O=C(c1coc2ccc(O)c(CN3CCOCC3)c12)C1CC1`, which “hERG current change (%, negative = inhibition) at 10uM” value is on record?
The value was 12.3%.

How did the “hERG current change (%, negative = inhibition) at 10uM” value turn out when `O=C(CCN1C(=O)C2CCCCC2C1=O)Nc1nc(-c2ccc(F)c(F)c2)cs1` (centres unmarked) was run?
The value was -24.4%.

With `COCCOC(=O)C1=C(C)Nc2ncnn2C1c1ccc(F)cc1` (centres unmarked) as the compound, how does the “hERG current change (%, negative = inhibition) at 10uM” value read?
The value was -2.01%.

For `Cn1ccc(NC(=O)Nc2ccc(Cl)cc2)n1`, which “hERG current change (%, negative = inhibition) at 10uM” value is on record?
The value was 17.4%.

For `O=C(NCCCN1CCOCC1)c1ccc(S(=O)(=O)N2CCOCC2)cc1`, which “hERG current change (%, negative = inhibition) at 10uM” value is on record?
Its value is -12.3%.

How did the “hERG current change (%, negative = inhibition) at 10uM” value turn out when `CN(c1ccc(OCC(=O)N2CCCC2)cc1)S(=O)(=O)c1ccc(Cl)cc1` was run?
Its value is -42%.

How did the “hERG current change (%, negative = inhibition) at 10uM” value turn out when `CCc1ccc(OCC2Cn3c(nc4c3c(=O)[nH]c(=O)n4C)O2)cc1` (centres unmarked) was run?
The value was 4.83%.

With `CC(=O)c1c(N2CCN(c3ccccc3)CC2)nc(=S)n(-c2ccccc2)c1C` as the compound, how does the “hERG current change (%, negative = inhibition) at 10uM” value read?
Its value is -20.1%.

Which “hERG current change (%, negative = inhibition) at 10uM” value does the source give for `COc1cc(NC(=S)Nc2ncccc2C)cc(OC)c1OC` here?
Its value is 15.5%.

Which “hERG current change (%, negative = inhibition) at 10uM” value does the source give for `CCc1cc2c(CN3CCN(C)CC3)cc(=O)oc2cc1O` here?
The value was 20.1%.

`O=C1C=C(c2ccc(F)cc2OCc2ccccc2)C[C@@H](c2ccc(F)cc2)C1` was tested. Which “hERG current change (%, negative = inhibition) at 10uM” value did it give?
The value was 9.48%.

For `Cc1cccc(NC(=O)COC(=O)c2ccc3c(c2)OCO3)c1C`, which “hERG current change (%, negative = inhibition) at 10uM” value is on record?
Its value is 12.3%.

For `CC(=O)N1CCc2cc(S(=O)(=O)CCC(=O)N(C)Cc3ccco3)ccc21`, which “hERG current change (%, negative = inhibition) at 10uM” value is on record?
The value was 14.8%.

With `Cc1nn(CCC#N)c2[nH]c(=O)cc(C(F)(F)F)c12` as the compound, how does the “hERG current change (%, negative = inhibition) at 10uM” value read?
The value was 11.6%.

Which “hERG current change (%, negative = inhibition) at 10uM” value does the source give for `O=C(Nc1ncc([N+](=O)[O-])s1)c1cccs1` here?
Its value is 21.1%.
